About 64,000 (15%) of roughly 420,000 compounds were called active. This list was built around the results that the source calls inconclusive (neither active nor inactive); the mix of calls is not that of the screen. The call rests on the fitted dose curve; in most records, active means well fitted inhibition curve with a large enough effect; inconclusive means small, poorly fitted or top-dose-only effect; inactive means flat fitted curve, though single readings scatter. No potency is given beside an inconclusive call; the fits are too rough.
Experiment: qHTS for Inhibitors of human tyrosyl-DNA phosphodiesterase 1 (TDP1): qHTS in cells in absence of CPT; further: nearly all actives have a fitted effect of over 55% in size
Conditions: DT40 Tdp1-/- hTDP1 cells, no CPT, ATP luminescence, 48 h; activity change, negative = growth inhibition: at 46.2 µM (top of the series) unless noted
Outline: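 Luminescent ATP content (CellTiter-Glo) served as the growth readout. Knockout chicken DT40 cells expressing human TDP1 were exposed to compounds without camptothecin for a minimum 48 hr at 37 °C.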
On the % scale 0 is the no-effect control and ±100 the full control effect; potency means the concentration at half of the fitted maximal effect; tags describe the fitted curve by direction and shape.

SMILES	Potency	activity change, negative = growth inhibition
CC1(C)[C@H]2CC=C(CN3CCC(N4CCC(C(=O)N5CCCC5)CC4)CC3)[C@@H]1C2	inconclusive [inhibitor, single point]	–
O=C(Nc1ccc(NC(=O)c2ccco2)c(Cl)c1)c1cccc([N+](=O)[O-])c1	inconclusive [inhibitor, partial curve, poor fit]	–
CC[C@]12c3[nH]c4cc(-c5ccco5)ccc4c3CCN1C(=O)[C@@H](CC(=O)NCC13CC4CC(CC(C4)C1)C3)C[C@@H]2C(=O)N1CCN(C(=O)C2CC2)CC1	active: 23.1 µM	–
OC(c1ccccc1)c1nc2ccccc2[nH]1 (configuration not stated)	–	inactive: -7.53%
NC(=O)c1cn(-c2ccccc2)nc1-c1cccnc1	inconclusive [inhibitor, full curve, poor fit]	–
O=C(Nc1cccc(-c2nc3ncccc3o2)c1)c1sc2cc(Cl)ccc2c1Cl	inconclusive [inhibitor, single point]	–
COc1ccc(C=O)cc1OS(=O)(=O)c1ccc(NC(C)=O)cc1	active: 3.66 µM	–
Cc1sc(NC(=O)/C=C/c2ccc3c(c2)OCO3)nc1-c1ccccc1	active: 16.4 µM	–
O=C1NN=C(c2ccccc2)CC1c1c[nH]c2ccccc12 (configuration not stated)	–	inactive: -16.4%
N#Cc1cccc(C#N)c1Oc1ccc(S(=O)(=O)Nc2ccc(Cl)cc2)cc1	active: 16.4 µM	–
N#C/C(=C\c1ccc(O)cc1)c1nc2ccccc2o1	inconclusive [inhibitor, single point]	–
COc1ccc(Cl)cc1C(=O)Nc1ccc2nc(Nc3cccc(Cl)c3)cc(C)c2c1	active: 11.6 µM	–
Clc1cccc(Cl)c1/C=C/c1ccn[nH]1	active: 10.3 µM	–
CCCCCOc1ccc(C(=O)CCC(=O)NC(C)c2ccc(S(N)(=O)=O)cc2)cc1 (configuration not stated)	inconclusive [inhibitor, single point]	–
O=C(Nc1ccc2c(c1)OCO2)C1Cc2c(-c3ccc(Cl)cc3)ccnc2O1 (configuration not stated)	inconclusive [inhibitor, partial curve, poor fit]	–
CCOC(=O)N1CCN(CC(=O)c2c(C)[nH]c3ccccc23)CC1	active: 18.4 µM	–
CC(=O)NCCn1c(SCc2ccc(C)cc2C)nc2ccccc2c1=O	active: 8.2 µM	–
CC1(C)Oc2c(ccc(O)c2CN2CCOCC2)C2=C1CCCC2	inconclusive [inhibitor, partial curve]	–
Cc1cc(C(=O)N(C)CC(=O)Nc2ccccc2C(F)(F)F)c(C)o1	active: 23.1 µM	–
O=C(CSC1=Nc2ccccc2C2CC=NN12)Nc1ccc(F)cc1Cl (configuration not stated)	inconclusive [inhibitor, single point]	–
COc1ccc(CCNC(=O)CN2C(=O)NC(c3ccccc3)(c3ccccc3)C2=O)cc1	inconclusive [inhibitor, single point]	–
CCOC(=O)[C@]12CCC=C1N(Cc1ccc3c(c1)OCO3)C(=O)[C@H](CC(=O)N1CCCC1)C2	inconclusive [inhibitor, single point]	–
Cc1ccccc1CSCC1Nc2ccc(C(=O)NCCc3ccccc3)cc2NC1=O (configuration not stated)	inconclusive [inhibitor, single point]	–
CCc1nnc(NC(=O)CCNC(=O)c2ccco2)s1	–	inconclusive: -35.7% [inhibitor]

SMILES	Potency	activity change, negative = growth inhibition
CCn1c(=O)c2cc(C(=O)NCCCN3CCN(c4ccc(F)cc4)CC3)sc2c2ccccc21	active: 6.51 µM	–
Cc1ccc(S(=O)(=O)NCC(=O)NCC(=O)OCC(=O)N2CC(=O)Nc3ccccc32)cc1C	inconclusive [inhibitor, single point]	–
CCOC(=O)c1c(-c2cccc([N+](=O)[O-])c2)cn2ccccc12	inconclusive [inhibitor, single point]	–
O=C(NCCN1CCCC(O)C1)c1cc(COc2cccc(C(F)(F)F)c2)on1 (configuration not stated)	inconclusive [inhibitor, single point]	–
OCCNc1nc(-c2ccccc2)c2ccccc2n1	inconclusive [inhibitor, single point]	–
CCc1ccc2[nH]c(=O)c(CN(CCN(CC)CC)C(=S)NCc3ccco3)cc2c1	inconclusive [inhibitor, single point]	–
CC(C)Oc1ccc(CNC(=O)c2ccc3c(c2)nc2n3CCCCC2)cc1	inconclusive [inhibitor, single point]	–
CCc1ccc(OCC(O)CN2CCN(CCO)CC2)cc1 (configuration not stated)	–	inactive: 5.07%
Cc1ccc2nc(N)nnc2c1	active: 0.517 µM	–
Cc1ccc(C2=NS(=O)(=O)N(C)C(C(=O)NCc3ccccc3)=C2)cc1	inconclusive [inhibitor, single point]	–
CCCS(=O)(=O)Nc1ccc2cn[nH]c2c1	–	inactive: 1.54%
O=C(c1ccc(N2CCCC2=O)cc1)N1CCN(c2ccccc2O)CC1	–	inconclusive: -31.4% [inhibitor]
CCN(CC)S(=O)(=O)c1cccc(C(=O)Nc2ccc3c(c2)OCO3)c1	inconclusive [inhibitor, partial curve]	–
CN=c1scc(-c2ccco2)n1/N=C/c1ccc(O)c(O)c1	active: 9.2 µM	–
C=C(C)C(=O)Oc1ccc(N2C(=O)[C@@H]3C4C=CC(C4)[C@@H]3C2=O)cc1	inconclusive [inhibitor, single point]	–
O=C(COC(=O)CNS(=O)(=O)c1c(F)cccc1F)NC(=O)NC1CCCCC1	–	inactive: 18.4%
CCOc1ccc(CN2CCN(Cc3ccc4cc(F)ccc4n3)CC2CCO)cc1 (configuration not stated)	active: 25.9 µM	–
COc1ccc(CNc2ncnc3ccc(-c4ccccc4C#N)cc23)c(OC)c1	–	inactive: -8.58%
COC(=O)[C@H](Cc1ccccc1)NC(=O)N1CCN(c2ccccc2)CC1	–	inactive: -10.3%
CCn1c(=O)c2cc(C(=O)Nc3cccc(C(C)=O)c3)sc2c2ccccc21	inconclusive [inhibitor, partial curve]	–
CCOC(=O)NC(C(F)(F)F)(C(F)(F)F)P(=O)(c1ccccc1)c1ccccc1	–	inactive: -26.8%
O=S(=O)([N-]c1nc2ccccc2nc1-n1cc[n+](Cc2ccccc2)c1)c1ccc(Br)cc1	inconclusive [inhibitor, partial curve]	–
COCCn1c(=O)c(-c2cccs2)nc2cnc(OCc3ccccc3)nc21	–	inactive: -9.41%
COc1ccc(OC)c(-c2csc(NC(=O)c3ccc4c(c3)OCO4)n2)c1	active: 14.6 µM	–

SMILES	Potency	activity change, negative = growth inhibition
O=C(Nc1ccc2ccccc2c1)C(c1ccccc1F)n1c(=O)c(-c2cc3ccccc3[nH]2)nc2ccccc21 (configuration not stated)	inconclusive [inhibitor, single point]	–
C/C(=N\O)c1cccc(Br)c1	inconclusive [inhibitor, full curve, poor fit]	–
CN(C)CC(C)(C)CNC(=S)Nc1ccc(S(=O)(=O)N2CCOCC2)cc1	inconclusive [inhibitor, full curve]	–
CCNC(=S)NNc1nncc2ccccc12	inconclusive [inhibitor, single point]	–
CCc1ccccc1Nc1ncnc2ccccc12	inconclusive [inhibitor, partial curve]	–
CCOC(=O)CSc1cc(CS(=O)c2ccc(Cl)cc2)nc(-c2ccccc2)n1 (configuration not stated)	inconclusive [inhibitor, single point]	–
CCCCCCOc1ccc(N2C(=O)CC(SC(=NCC)NCC)C2=O)cc1 (configuration not stated)	–	inactive: -1.48%
O=C(COc1ccccc1F)Nc1ccc(N2CCOCC2)cc1N1CCOCC1	inconclusive [inhibitor, single point]	–
N#Cc1ccc(/C=C2\CCn3c2nc2cc(C(=O)O)ccc2c3=O)cc1	–	inactive: -11.7%
Cc1cc(=O)n2nc(N3CCC(C(=O)Nc4c(C)cccc4C)CC3)sc2n1	–	inactive: -15.1%
CCCn1c(C)cc(C(=O)COc2ncnc3sccc23)c1C	inconclusive [inhibitor, single point]	–
N#Cc1c(NCc2ccccc2)ccnc1Cl	active: 20.6 µM	–
NC(=O)c1cc(Br)cc(C2CCCCC2)c1O	–	inactive: -21.2%
COc1ccccc1-c1nn(-c2ccccc2)cc1C(=O)NCC(c1ccco1)N1CCCC1 (configuration not stated)	inconclusive [inhibitor, single point]	–
Cc1cc(C)c(S(=O)(=O)N2CCN(C(=O)c3cc4ccccc4o3)CC2)c(C)c1	inconclusive [inhibitor, single point]	–
NCC(c1ccccc1)(c1ccccc1)c1ccccc1	inconclusive [inhibitor, single point]	–
COc1ccc(S(=O)(=O)N2CCN(C(=O)c3cc(C4CC4)nn3-c3ccccc3)CC2)cc1OC	inconclusive [inhibitor, single point]	–
NC(=O)COC(=O)CC12CC3CC(CC(Br)(C3)C1)C2	–	inactive: -0.824%
Clc1ccc(/C=C/c2ccc3ccccc3n2)c(Cl)c1	inconclusive [inhibitor, partial curve]	–
COc1cc(NC(=O)C[n+]2ccc(C(=O)c3ccccc3)cc2)cc(OC)c1	active: 13 µM	–
Cc1cc(NC(=O)CSc2nc(=O)n(CCCN(C)C)c3c2CCCC3)no1	–	inactive: -0.784%
N#C/C(C(=O)NCc1ccccc1)=C1/N=C(NC(=O)c2cccs2)c2ccccc21	active: 10.3 µM	–
COc1ccc(CNC(=O)CN2C(=O)CSc3ccc(S(=O)(=O)N(C)C)cc32)cc1	–	inactive: -29.4%
O=C(NCc1ccco1)C(c1cccs1)N(C(=O)C1COc2ccccc2O1)c1cccc(O)c1 (configuration not stated)	active: 13 µM	–

Reference: PubChem BioAssay AID686978 (National Center for Advancing Translational Sciences (NCATS), 2013)
